# Data published in the supplement of paper PMC12217912.
# The list shows a part of the results. Sequences were assembled here from the parent chain. Inactive controls read about 0.05.
# B1: TEV protease; numbered along this chain (parent)
# chain: MGESLFKGPRDYNPISSSICHLTNESDGHTTSLYGIGFGPFIITNKHLFRRNNGTLVVQSLHGVFKVKDTTTLQQHLVDGRDMIIIRMPKDFPPFPQKLKFREPQREERICLVTTNFQTKSMSSMVSDTSCTFPSGDGIFWKHWIQTKDGQCGSPLVSTRDGFIVGIHSASNFTNTNNYFTSVPKNFMELLTNQEAQQWVSGWRLNADSVLWGGHKVFMVKPEEPFQPVKEATQL
# Variants of: B1
# Assay: raw area under fraction-flipped curve 0-4 h after induction (AUC4h, not background-subtracted), DNA-recorder readout of cleavage of the substrate (dimensionless); higher = more cleavage of the substrate by the protease variant
# Conditions: temperature: 34 °C; time window: 0-4 h after rhamnose induction
# Method: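 In vivo DNA recorder in E. coli TOP10(DE3) ΔrhaA at 34 °C. Each TEVp single-site mutant (parent TEVp 0) is paired with a single-site variant of the 7-mer TEVs (canonical ENLYFQ|S). The substrate sits between flexible linkers in a Bxb1-sfGFP-TEVs-SsrA fusion, so cleavage stabilises Bxb1 and speeds flipping of a recombination array, read by NGS. The value is the raw area under the fraction-flipped curve over 0-4 h after rhamnose induction (AUC4h), with ≥20 reads per time point. It is not background-subtracted; inactive controls average about 0.047.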
# 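Note: Bxb1 expression induced with 0.2% (w/v) L-rhamnose at OD600 near 0.5, cultures sampled hourly, flipped fraction per protease–substrate barcode pair counted by paired-end Illumina sequencing.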
Variant,area with substrate CNLYFQS,area with substrate DNLYFQS,area with substrate GNLYFQS,area with substrate INLYFQS,area with substrate KNLYFQS,area with substrate LNLYFQS,area with substrate MNLYFQS,area with substrate NNLYFQS,area with substrate PNLYFQS,area with substrate QNLYFQS,area with substrate SNLYFQS,area with substrate TNLYFQS,area with substrate WNLYFQS,area with substrate YNLYFQS,area with substrate HNLYFQS,area with substrate VNLYFQS,area with substrate FNLYFQS,area with substrate RNLYFQS
MGESLFKGPRDYNHISSSICHLTNESDGHTTSLYGIGFGPFIITNKHLFRRNNGTLVVQSLHGVFKVKDTTTLQQHLVDGRDMIIIRMPKDFPPFPQKLKFREPQREERICLVTTNFQTKSMSSMVSDTSCTFPSGDGIFWKHWIQTKDGQCGSPLVSTRDGFIVGIHSASNFTNTNNYFTSVPKNFMELLTNQEAQQWVSGWRLNADSVLWGGHKVFMVKPEEPFQPVKEATQL [P14H],0.0673,0.083,0.0866,0.0649,0.0678,0.0715,0.0633,0.0636,0.0639,0.0751,0.0659,0.0627,0.0672,0.0584,–,–,–,–
MGESLFKGPRDYNKISSSICHLTNESDGHTTSLYGIGFGPFIITNKHLFRRNNGTLVVQSLHGVFKVKDTTTLQQHLVDGRDMIIIRMPKDFPPFPQKLKFREPQREERICLVTTNFQTKSMSSMVSDTSCTFPSGDGIFWKHWIQTKDGQCGSPLVSTRDGFIVGIHSASNFTNTNNYFTSVPKNFMELLTNQEAQQWVSGWRLNADSVLWGGHKVFMVKPEEPFQPVKEATQL [P14K],0.0701,0.0774,0.0584,0.0583,0.0637,0.0707,0.0668,0.0625,0.0437,–,–,0.0594,0.0731,–,0.0606,–,–,–
MGESLFKGPRDYNPMSSSICHLTNESDGHTTSLYGIGFGPFIITNKHLFRRNNGTLVVQSLHGVFKVKDTTTLQQHLVDGRDMIIIRMPKDFPPFPQKLKFREPQREERICLVTTNFQTKSMSSMVSDTSCTFPSGDGIFWKHWIQTKDGQCGSPLVSTRDGFIVGIHSASNFTNTNNYFTSVPKNFMELLTNQEAQQWVSGWRLNADSVLWGGHKVFMVKPEEPFQPVKEATQL [I15M],0.048,0.0736,–,–,0.0632,–,0.0629,0.0609,0.0668,–,0.0646,0.0631,0.0625,0.0605,–,0.0727,–,–
MGESLFKGPRDYNPPSSSICHLTNESDGHTTSLYGIGFGPFIITNKHLFRRNNGTLVVQSLHGVFKVKDTTTLQQHLVDGRDMIIIRMPKDFPPFPQKLKFREPQREERICLVTTNFQTKSMSSMVSDTSCTFPSGDGIFWKHWIQTKDGQCGSPLVSTRDGFIVGIHSASNFTNTNNYFTSVPKNFMELLTNQEAQQWVSGWRLNADSVLWGGHKVFMVKPEEPFQPVKEATQL [I15P],0.0835,0.0851,0.0717,–,0.062,0.0607,0.0649,0.0556,–,0.0656,0.0521,0.0572,–,0.0546,0.0663,–,0.0653,0.0359
MGESLFKGPRDYNPISPSICHLTNESDGHTTSLYGIGFGPFIITNKHLFRRNNGTLVVQSLHGVFKVKDTTTLQQHLVDGRDMIIIRMPKDFPPFPQKLKFREPQREERICLVTTNFQTKSMSSMVSDTSCTFPSGDGIFWKHWIQTKDGQCGSPLVSTRDGFIVGIHSASNFTNTNNYFTSVPKNFMELLTNQEAQQWVSGWRLNADSVLWGGHKVFMVKPEEPFQPVKEATQL [S17P],0.0685,0.0649,0.0657,0.123,–,0.065,0.0686,0.0713,0.0603,–,0.0648,–,0.0563,0.0303,0.0647,0.0607,0.0571,–
MGESLFKGPRDYNPISSQICHLTNESDGHTTSLYGIGFGPFIITNKHLFRRNNGTLVVQSLHGVFKVKDTTTLQQHLVDGRDMIIIRMPKDFPPFPQKLKFREPQREERICLVTTNFQTKSMSSMVSDTSCTFPSGDGIFWKHWIQTKDGQCGSPLVSTRDGFIVGIHSASNFTNTNNYFTSVPKNFMELLTNQEAQQWVSGWRLNADSVLWGGHKVFMVKPEEPFQPVKEATQL [S18Q],0.0542,0.111,0.0603,0.0701,0.0669,0.0832,0.0706,–,0.0911,–,–,0.0847,0.0621,0.0744,0.0653,0.0755,0.0731,–
MGESLFKGPRDYNPISSSWCHLTNESDGHTTSLYGIGFGPFIITNKHLFRRNNGTLVVQSLHGVFKVKDTTTLQQHLVDGRDMIIIRMPKDFPPFPQKLKFREPQREERICLVTTNFQTKSMSSMVSDTSCTFPSGDGIFWKHWIQTKDGQCGSPLVSTRDGFIVGIHSASNFTNTNNYFTSVPKNFMELLTNQEAQQWVSGWRLNADSVLWGGHKVFMVKPEEPFQPVKEATQL [I19W],0.044,0.0498,0.0488,0.0436,0.0237,0.0484,0.0416,–,0.0518,–,0.0424,0.0271,0.0535,0.043,0.056,0.0357,0.0421,–
MGESLFKGPRDYNPISSSILHLTNESDGHTTSLYGIGFGPFIITNKHLFRRNNGTLVVQSLHGVFKVKDTTTLQQHLVDGRDMIIIRMPKDFPPFPQKLKFREPQREERICLVTTNFQTKSMSSMVSDTSCTFPSGDGIFWKHWIQTKDGQCGSPLVSTRDGFIVGIHSASNFTNTNNYFTSVPKNFMELLTNQEAQQWVSGWRLNADSVLWGGHKVFMVKPEEPFQPVKEATQL [C20L],0.0692,0.0823,0.0678,0.0655,0.0709,0.0685,–,–,0.0613,–,–,0.0553,–,0.0773,0.068,–,–,0.0686
MGESLFKGPRDYNPISSSIWHLTNESDGHTTSLYGIGFGPFIITNKHLFRRNNGTLVVQSLHGVFKVKDTTTLQQHLVDGRDMIIIRMPKDFPPFPQKLKFREPQREERICLVTTNFQTKSMSSMVSDTSCTFPSGDGIFWKHWIQTKDGQCGSPLVSTRDGFIVGIHSASNFTNTNNYFTSVPKNFMELLTNQEAQQWVSGWRLNADSVLWGGHKVFMVKPEEPFQPVKEATQL [C20W],0.0542,0.048,0.0585,0.0496,–,0.0538,–,0.057,0.0487,0.0365,0.0633,0.047,0.051,0.0426,0.0486,–,–,–
